# The full ranking holds about 81,000 sequences; the median of “one-hybrid fitness for binding NBS DNA” is about -0.1, and the highest 2% start at about 0.36. The list shows a part of the results.
# B1: Caulobacter ParB omega fusion; a variant is named by its letters at X, in order, B8GW30 (parent)
# chain: MESVVVGEPGMSEGRRGLGRGLSALLGEVDAAPAQAPGEQLGGSREAPIEILQRNPDQPRRTFREEDLEDLSNSIREKGVLQPILVRPSPDTAGEYQIVAGERAWRAAQRAGLKTVPIMVRELDDLAVLEIGIIENVQRADLNVLEEALSYKVLMEKFERTQENIAQTIGKSXSHVANXMRLLXLPDEVQSYLVSGELTAXHARAIAAAADPVALAKQIIEGGLSVRETEALARKAPNLSAGKSKGGRPPRVKDTDTQALESDLSSVLGLDVSIDHRGSTGTLTITYATLEQLDDLCNRLTRGI
# Variants of: B1
# Test: one-hybrid fitness for binding NBS DNA (the Noc-binding site; scaled: cognate 1, non-cognate 0); higher = stronger binding
# Settings: with NBS DNA site
# How it was run: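 Selection: bacterial one-hybrid in E. coli USO, HIS3 reporter with the site 19 bp from the promoter, 48 hours at 37°C on M9-minus-histidine plus 0.1 mM IPTG and 5 mM 3-AT. Libraries were Caulobacter ParB with four randomised specificity codons, sequenced on Illumina before and after selection. Fitness is the rescaled log change in variant-to-wild-type read ratio, anchored to the cognate and non-cognate sites.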
row,Variant,one-hybrid fitness for binding NBS DNA
1,NQNG,≤ 0.2
2,MTGT,≤ 0.2
3,NSRH,≤ 0.2
4,IQFR,≤ 0.2
5,DFYS,≤ 0.2
6,YYAK,≤ 0.2
7,PWVA,≤ 0.2
8,PREA,≤ 0.2
9,RTEE,≤ 0.2
10,KRKR,0.849
11,RMRG,≤ 0.2
12,RLHE,≤ 0.2
13,KKKA,≤ 0.2
14,DNPT,≤ 0.2
15,EFLR,≤ 0.2
16,IPWG,≤ 0.2
17,QFRW,≤ 0.2
18,KLAL,≤ 0.2
19,FARH,≤ 0.2
20,RIVI,≤ 0.2
21,KPKH,≤ 0.2
22,VSVW,≤ 0.2
23,AENR,≤ 0.2
24,ISKA,≤ 0.2
25,DEVS,≤ 0.2

row,Variant,one-hybrid fitness for binding NBS DNA
1,NWSV,≤ 0.2
2,QRIE,≤ 0.2
3,EFHC,≤ 0.2
4,HTSF,≤ 0.2
5,PTDN,≤ 0.2
6,LPCL,≤ 0.2
7,QMCY,0.212
8,LVHQ,≤ 0.2
9,NVIS,≤ 0.2
10,RREY,0.262
11,HHMG,≤ 0.2
12,QYLY,≤ 0.2
13,LNLV,≤ 0.2
14,IHDR,≤ 0.2
15,DNAG,≤ 0.2
16,TYTF,≤ 0.2
17,QTQW,≤ 0.2
18,TEAT,≤ 0.2
19,KDKY,≤ 0.2
20,DKGL,≤ 0.2
21,PGQY,≤ 0.2
22,RSLQ,≤ 0.2
23,WQQT,≤ 0.2
24,AENE,≤ 0.2
25,ETPY,≤ 0.2

row,Variant,one-hybrid fitness for binding NBS DNA
1,PVAT,≤ 0.2
2,AQSR,≤ 0.2
3,TRYK,≤ 0.2
4,TYIT,≤ 0.2
5,LVSD,≤ 0.2
6,HLMY,≤ 0.2
7,KKGR,0.245
8,ATGT,≤ 0.2
9,KLMY,≤ 0.2
10,RPPY,≤ 0.2
11,CGGA,≤ 0.2
12,KTTT,≤ 0.2
13,VPWG,≤ 0.2
14,RNRI,≤ 0.2
15,QRMD,0.26
16,KKDL,≤ 0.2
17,LRCC,≤ 0.2
18,MAPI,≤ 0.2
19,THHI,≤ 0.2
20,MIAG,≤ 0.2
21,WLAS,≤ 0.2
22,KEGL,≤ 0.2
23,HGWG,≤ 0.2
24,NVTK,≤ 0.2
25,QCLK,≤ 0.2

row,Variant,one-hybrid fitness for binding NBS DNA
1,QFAG,≤ 0.2
2,LYVT,≤ 0.2
3,RTDY,≤ 0.2
4,QCCF,≤ 0.2
5,NWPM,≤ 0.2
6,RAMM,≤ 0.2
7,ESSY,≤ 0.2
8,FDLR,≤ 0.2
9,DIAW,≤ 0.2
10,VLPL,≤ 0.2
11,ARKG,≤ 0.2
12,GKDG,≤ 0.2
13,DLIG,≤ 0.2
14,YPVR,≤ 0.2
15,EAAC,≤ 0.2
16,RKQY,0.246
17,VPLH,≤ 0.2
18,FPYT,≤ 0.2
19,RVAH,≤ 0.2
20,PDRV,≤ 0.2
21,CPVC,≤ 0.2
22,KVCE,≤ 0.2
23,VKAV,≤ 0.2
24,VVKP,≤ 0.2
25,LSGY,≤ 0.2

row,Variant,one-hybrid fitness for binding NBS DNA
1,QNLP,≤ 0.2
2,QFIG,≤ 0.2
3,SAEI,≤ 0.2
4,DVRM,≤ 0.2
5,IRWY,≤ 0.2
6,TLAF,≤ 0.2
7,IATC,≤ 0.2
8,CYVF,≤ 0.2
9,YIYF,≤ 0.2
10,RMLD,≤ 0.2
11,PGFS,≤ 0.2
12,GRYG,≤ 0.2
13,GHCG,≤ 0.2
14,GMKF,≤ 0.2
15,VDRF,≤ 0.2
16,SEEV,≤ 0.2
17,LIFS,≤ 0.2
18,SEAC,≤ 0.2
19,LRHA,≤ 0.2
20,GTWD,≤ 0.2
21,TDKV,≤ 0.2
22,MNQL,≤ 0.2
23,ISGG,≤ 0.2
24,QLMY,≤ 0.2
25,SNLI,≤ 0.2

row,Variant,one-hybrid fitness for binding NBS DNA
1,SFAN,≤ 0.2
2,YHSD,≤ 0.2
3,LQNT,≤ 0.2
4,PGFG,≤ 0.2
5,VGYG,≤ 0.2
6,YLHN,≤ 0.2
7,VRQH,≤ 0.2
8,PLRF,≤ 0.2
9,GCKG,≤ 0.2
10,AAQI,≤ 0.2
11,KKRP,≤ 0.2
12,CATP,≤ 0.2
13,HYHT,≤ 0.2
14,TFPH,≤ 0.2
15,IRQE,≤ 0.2
16,VNLN,≤ 0.2
17,QAPS,≤ 0.2
18,LGWM,≤ 0.2
19,ISGC,≤ 0.2
20,PSRN,≤ 0.2
21,VQWC,≤ 0.2
22,RGTK,≤ 0.2
23,QDDR,≤ 0.2
24,DEMS,≤ 0.2
25,FHER,≤ 0.2

row,Variant,one-hybrid fitness for binding NBS DNA
1,HPVV,≤ 0.2
2,MDTV,≤ 0.2
3,PAWV,≤ 0.2
4,YEQR,≤ 0.2
5,RMCD,≤ 0.2
6,CRPL,≤ 0.2
7,RHDH,≤ 0.2
8,TKLQ,≤ 0.2
9,CVKA,≤ 0.2
10,EVLA,≤ 0.2
11,CTYS,≤ 0.2
12,WCNR,≤ 0.2
13,MRME,≤ 0.2
14,KLKP,≤ 0.2
15,MGHG,≤ 0.2
16,RPTK,≤ 0.2
17,HGPM,≤ 0.2
18,TTNE,≤ 0.2
19,QIEF,≤ 0.2
20,SGSH,≤ 0.2
21,AASP,≤ 0.2
22,DPQQ,≤ 0.2
23,SRYM,≤ 0.2
24,WKDP,≤ 0.2
25,HAKR,≤ 0.2

row,Variant,one-hybrid fitness for binding NBS DNA
1,SFAA,≤ 0.2
2,VSTM,≤ 0.2
3,TNLN,≤ 0.2
4,FRSG,≤ 0.2
5,SNLF,≤ 0.2
6,FEDA,≤ 0.2
7,FSYT,≤ 0.2
8,DYWR,≤ 0.2
9,LHWR,≤ 0.2
10,YNND,≤ 0.2
11,VLIA,≤ 0.2
12,HLTD,≤ 0.2
13,GVIL,≤ 0.2
14,IAKS,≤ 0.2
15,IVVS,≤ 0.2
16,CVAC,≤ 0.2
17,FLAP,≤ 0.2
18,AAGD,≤ 0.2
19,CHLM,≤ 0.2
20,CERF,≤ 0.2

# Reference: a collection of fitness landscapes (doi:10.1016/j.celrep.2020.107928)
